{
  "source": "PubChem BioAssay AID602332",
  "about": "(National Center for Advancing Translational Sciences (NCATS), 2012)",
  "note": "About 75 (0.02%) of roughly 420,000 compounds were called active. Inconclusive means that the source gave no clear call. Such entries were picked first, then a sample of the others. The call rests on the fitted dose curve; in most records, active means well fitted activation curve with a large enough effect; inconclusive means small, poorly fitted or top-dose-only effect; inactive means no such curve, though single readings can be large or run the other way. Potencies beside an inconclusive call are fits to weak or partial responses and may not hold up.",
  "data": [
    {"experiment": "qHTS for Inducers of the Endoplasmic Reticulum Stress Response (ERSR) in Human Glioma: qHTS; further: nearly all actives have a fitted effect of over 35% in size; further: potency means the concentration at half of the fitted maximal effect; tags describe the fitted curve by direction and shape; on activation: % of control where 0% means no effect", "details": "U87-MG GRP78 promoter luciferase reporter, 16 h; activation: stronger effect = higher value", "outline": "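ERSR induction read as luciferase luminescence (Bright-Glo, 10 min at room temperature) in stably transfected human U87-MG glioma cells exposed to compounds for 16 h, using GRP78 as sensor.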", "values": [
      {"molecule": "CC1(C)CC(=O)C2=C(C1)OC(N)=C(C#N)C2c1cn(-c2ccccc2)nc1-c1ccccc1", "note": "(stereo not drawn)", "Potency": "inconclusive: 50.1 µM [activator, single point]"},
      {"molecule": "NC(=O)C1CCN(c2nc3ccccc3nc2NS(=O)(=O)c2ccc(Br)cc2)CC1", "activation": "inactive: -5%"},
      {"molecule": "Cc1cc(NC(=O)CSc2nc3c(sc4ccccc43)c(=O)n2CCCN2CCOCC2)n[nH]1", "Potency": "inconclusive: 3.55 µM [activator, full curve, poor fit]"},
      {"molecule": "COc1cc(C)c2c(=O)cc(-c3ccccc3)oc2c1", "Potency": "inconclusive: 7.08 µM [activator, single point]"},
      {"molecule": "Cc1ccc(CN(C)C(=O)c2ccccc2NC(=O)c2ccccc2)o1", "activation": "inactive: -2.95%"},
      {"molecule": "Oc1ccc(Cl)cc1C1C=C(c2ccc3c(c2)OCO3)NC(c2ccc(C(F)(F)F)cc2)N1", "note": "(stereo not drawn)", "Potency": "inconclusive: 12.6 µM [activator, single point]"},
      {"molecule": "CCOC(=O)Cn1c(CN2CCc3ccccc3C2)nc2c1c(=O)n(C)c(=O)n2C", "activation": "inactive: -3.07%"},
      {"molecule": "COC(=O)c1ccc(/C=C(\\C#N)C(=O)NC(C)c2ccccc2)cc1", "note": "(stereo not drawn)", "Potency": "inconclusive: 50.1 µM [activator, single point]"},
      {"molecule": "N#C/C(=C/c1ccc(F)cc1)c1nc(CCN2C(=O)c3ccccc3C2=O)cs1", "activation": "inactive: -1.88%"},
      {"molecule": "CCOC(=O)CNS(=O)(=O)c1cc(-c2nnc(Nc3ccc4c(c3)OCO4)c3ccccc23)ccc1C", "Potency": "inconclusive: 17.8 µM [activator, full curve, poor fit]"},
      {"molecule": "CCCNC(=O)c1cc(-c2ccco2)on1", "Potency": "inconclusive: 15.8 µM [activator, single point]"},
      {"molecule": "O=C1c2cccc3c([N+](=O)[O-])c(O)cc(c23)C(=O)N1Nc1ccccc1", "Potency": "inconclusive: 44.7 µM [activator, single point]"},
      {"molecule": "COc1ccccc1/C=C/C(=O)c1ccccc1", "Potency": "inconclusive: 44.7 µM [activator, partial curve, poor fit]"},
      {"molecule": "COc1ccc(C(=O)NCCN2C(=O)S/C(=C\\c3cccnc3)C2=O)cc1[N+](=O)[O-]", "Potency": "inconclusive: 31.6 µM [activator, partial curve, poor fit]"},
      {"molecule": "Cc1c(C(=O)NCC(C)(C)N2CCOCC2)cnn1-c1ncc2c(n1)-c1ccccc1CC2", "activation": "inactive: -2.1%"},
      {"molecule": "CCc1nc2ccc(C(=O)N3CCN(C)CC3)cn2c1N(C)CCCc1ccccc1", "Potency": "inconclusive: 17.8 µM [activator, single point]"},
      {"molecule": "Cc1ccc(-c2csc(NC(=O)c3ccccc3Cl)c2C(=O)O)cc1", "Potency": "inconclusive: 63.1 µM [activator, single point]"},
      {"molecule": "Cc1[nH]nc(Nc2ccc(C(C)C)cc2)c1[N+](=O)[O-]", "Potency": "inconclusive: 7.08 µM [activator, partial curve, poor fit]"},
      {"molecule": "CCSc1ccc(-c2cc(NC=O)c3ncc(-c4cccc(C(=O)N(C)C)c4)n3c2)cc1", "Potency": "inconclusive: 50.1 µM [activator, single point]"},
      {"molecule": "CCOc1cc(NS(C)(=O)=O)c(OCC)cc1NC(=O)c1cccs1", "Potency": "inconclusive: 7.08 µM [activator, partial curve, poor fit]"},
      {"molecule": "COc1ccc(C(=O)NNC(=S)NC(=O)C(C)(C)C)cc1", "Potency": "inconclusive: 35.5 µM [activator, partial curve]"},
      {"molecule": "N#C/C(=C(/O)c1cc2ccccc2o1)c1nc2ccccc2s1", "Potency": "inconclusive: 2.24 µM [activator, full curve, poor fit]"},
      {"molecule": "O=C1C=C(C#Cc2ccccc2)C[C@@H](c2ccc(F)cc2)C1", "Potency": "inconclusive: 50.1 µM [activator, single point]"},
      {"molecule": "O=C(O)C1CCN(C(=O)c2ccccc2Cl)CC1", "Potency": "inconclusive: 20 µM [activator, single point]"},
      {"molecule": "CCOc1ccc(Nc2nc(Cc3nnc(SCC(=O)NC4CCCCC4)n3C)cs2)cc1", "activation": "inactive: -3.66%"},
      {"molecule": "CC(C)(O)C#Cc1ccc(CN2CCc3nnc(CNC(=O)c4cccc(F)c4)n3CC2)cc1", "activation": "inactive: -4.02%"},
      {"molecule": "Cc1ccc(S(=O)(=O)NCc2ccc(C(=O)NC3CCCCC3)cc2)cc1", "Potency": "inconclusive: 22.4 µM [activator, single point]"},
      {"molecule": "O=C(CSc1nnc(Cc2ccccc2)o1)Nc1ccc2c(c1)OCO2", "Potency": "inconclusive: 10 µM [activator, partial curve, poor fit]"},
      {"molecule": "Cc1ccc(CNC(=O)C(=O)NCC2OCCN2S(=O)(=O)c2ccc(C)cc2)cc1", "note": "(stereo not drawn)", "activation": "inactive: -3.24%"},
      {"molecule": "CCc1nnc(NC(=O)C2(C)COC(c3ccc(OC)cc3)OC2)s1", "note": "(stereo not drawn)", "Potency": "inconclusive: 28.2 µM [activator, single point]"},
      {"molecule": "Cc1nn(-c2ccccc2)c(Cl)c1/C=C(\\C#N)C(=O)NC(C)C", "Potency": "inconclusive: 50.1 µM [activator, single point]"},
      {"molecule": "O=C(N/N=C/c1cc([N+](=O)[O-])ccc1O)c1cc(-c2ccccc2)nc2ccccc12", "activation": "inactive: -5.06%"},
      {"molecule": "O=C(NCc1ccccc1)c1c(Cl)nc(Cl)c(Cl)c1Cl", "activation": "inactive: -5.39%"},
      {"molecule": "CCCc1ccc(C(=O)NNc2cc(Cl)ccc2Cl)cc1", "activation": "inactive: -0.0113%"},
      {"molecule": "CCOc1ccc2nc(N=NC3=C(O)CC(C)(C)CC3=O)sc2c1", "Potency": "inconclusive: 11.2 µM [activator, single point]"},
      {"molecule": "COc1ccccc1C(=O)NC(=S)/C=C1/N(C)c2ccccc2C1(C)C", "activation": "inactive: 4.25%"},
      {"molecule": "CCOc1cc(C(c2c(C)[nH][nH]c2=O)c2c(C)[nH][nH]c2=O)ccc1OCc1ccc([N+](=O)[O-])cc1", "Potency": "inconclusive: 31.6 µM [activator, single point]"},
      {"molecule": "N#CSC(c1ccccc1)c1nc2ccccc2[nH]c1=O", "note": "(stereo not drawn)", "Potency": "inconclusive: 14.1 µM [activator, partial curve, poor fit]"},
      {"molecule": "Cc1ccc(/C=C/C(=O)NCCCc2ccccc2)cc1", "activation": "inactive: 9.44%"},
      {"molecule": "COc1cc(Cl)cc(/C=N\\NC(=O)c2ccc3c(c2)OCO3)c1O", "Potency": "inconclusive: 44.7 µM [activator, single point]"},
      {"molecule": "COC1(OC)N=C(N)C2(C#N)C(c3ccc4c(c3)OCO4)C12C#N", "note": "(stereo not drawn)", "activation": "inconclusive: 28.7% [activator]"},
      {"molecule": "N#Cc1c(-c2cccs2)cc(-c2ccccn2)nc1N", "Potency": "inconclusive: 28.2 µM [activator, single point]"},
      {"molecule": "CN(C)CC(C)(C)CNS(=O)(=O)c1ccc(Cl)cc1", "activation": "inactive: -2.38%"},
      {"molecule": "CCOC(=O)c1c(NC(=O)/C=C/C(=O)O)sc(C)c1-c1ccc(Cl)cc1", "Potency": "inconclusive: 20 µM [activator, single point]"},
      {"molecule": "O=C(COc1ccccc1)NCCn1ccc2ccccc21", "Potency": "inconclusive: 28.2 µM [activator, single point]"},
      {"molecule": "Fc1ccc(Nc2nc(NCc3ccco3)nc3nccnc23)cc1", "Potency": "inconclusive: 50.1 µM [activator, single point]"},
      {"molecule": "Cc1ccccc1CCNC(=O)C1CCCN(c2cnccn2)C1", "note": "(stereo not drawn)", "Potency": "inconclusive: 50.1 µM [activator, single point]"},
      {"molecule": "COC(=O)c1ccc2c(c1)C(C)(C)C(/C=C/c1ccccc1O)=[N+]2C", "Potency": "inconclusive: 5.01 µM [activator, single point]"},
      {"molecule": "CC(CCc1ccc(O)cc1)NCCc1ccc(O)c(O)c1", "note": "(stereo not drawn)", "Potency": "inconclusive: 23.3 µM [activator, partial curve, poor fit]"},
      {"molecule": "Cc1cnc(C)c(-c2cccc3c2OC(CNC(=O)c2cc(C)on2)C3)n1", "note": "(stereo not drawn)", "Potency": "inconclusive: 28.2 µM [activator, single point]"},
      {"molecule": "Cc1nc(-n2[nH]c3c(c2=O)CCCC3)[nH]c(=O)c1Cc1ccccc1", "Potency": "inconclusive: 15.8 µM [activator, single point]"},
      {"molecule": "C=CCc1c(C)nc2c(-c3ccccc3)cnn2c1N1CCOCC1", "Potency": "inconclusive: 10 µM [activator, full curve, poor fit]"},
      {"molecule": "Cc1sc(-n2c(C)cc(/C=C3\\SC(=S)NC3=O)c2C)c(C#N)c1C", "Potency": "inconclusive: 28.2 µM [activator, single point]"},
      {"molecule": "COc1ccccc1S(=O)(=O)N(C)C[C@H]1Oc2cc(C#CCC3CCCC3)ccc2S(=O)(=O)N([C@H](C)CO)C[C@H]1C", "Potency": "inconclusive: 28.2 µM [activator, single point]"},
      {"molecule": "O=C(CSc1ccc(-c2nc3ccccc3[nH]2)cn1)Nc1ccc2c(c1)OCCO2", "Potency": "inconclusive: 3.55 µM [activator, single point]"},
      {"molecule": "O=S(=O)(Nc1ccccn1)c1ccc(-n2cccn2)cc1", "activation": "inactive: -2.26%"},
      {"molecule": "Cc1ccc(N/C=C/C(=O)C(C)(C)C)c(O)c1", "Potency": "inconclusive: 17.8 µM [activator, single point]"},
      {"molecule": "COc1cccc(SCc2noc(C(=O)NCC3CC3)c2C(=O)NCC2CC2)c1", "Potency": "inconclusive: 17.8 µM [activator, single point]"},
      {"molecule": "CCOC(=O)CSc1nc2c(c(-c3ccc(C)o3)c1C#N)CCCC2", "activation": "inactive: 1.22%"},
      {"molecule": "COc1ccccc1Nc1nn2c(=O)c3ccc(C(=O)NCCC4=CCCCC4)cc3nc2s1", "Potency": "inconclusive: 6.31 µM [activator, full curve, poor fit]"},
      {"molecule": "CC(C)CC1C(=O)N2CCC[C@H]2[C@]2(O)O[C@](NC(=O)[C@@H]3C=C4c5cccc6[nH]c(Br)c(c56)C[C@H]4N(C)C3)(C(C)C)C(=O)N12", "note": "(stereo partly drawn)", "activation": "inactive: -3.39%"},
      {"molecule": "Nc1nc(Sc2c([N+](=O)[O-])cc(C(F)(F)F)cc2[N+](=O)[O-])n[nH]1", "Potency": "inconclusive: 12.6 µM [activator, single point]"},
      {"molecule": "CC(C)c1ccc(/C=N/NC(=O)C2CCCC2)cc1", "Potency": "inconclusive: 17.8 µM [activator, single point]"}
    ]}
  ]
}
